Results reported in the antibiotic and cytotoxicity screens of Wong et al. (2023).
The list shows a part of the results.

Experiments:
HSkMC = human skeletal muscle cells; experiment: cytotoxicity call (relative viability < 0.9); conditions: 10 µM
HepG2 = experiment: cytotoxicity call (relative viability < 0.9); conditions: 10 µM
S. aureus RN4220 = experiment: growth inhibition call (relative growth <= 0.2); conditions: 50 µM

## NCC[C@@H]1CC[C@H](NC(=O)c2ccccc2F)[C@H](CO)O1
HSkMC
  cytotoxicity call: inactive
HepG2
  cytotoxicity call: inactive
S. aureus RN4220
  growth inhibition call: inactive

## NC(=O)c1cccnc1
HSkMC
  cytotoxicity call: inactive
HepG2
  cytotoxicity call: inactive
S. aureus RN4220
  growth inhibition call: inactive

## Cc1ccc(S(=O)(=O)N(C)C[C@H]2OCCCC[C@@H](C)Oc3ccc(NS(=O)(=O)c4ccc(Cl)cc4)cc3C(=O)N([C@H](C)CO)C[C@H]2C)cc1
HSkMC
  cytotoxicity call: inactive
HepG2
  cytotoxicity call: inactive
S. aureus RN4220
  growth inhibition call: inactive

## COc1ccc(S(=O)(=O)Nc2cccc3c2O[C@@H](CN(C)Cc2ccncc2)[C@H](C)CN([C@H](C)CO)C3=O)cc1
HSkMC
  cytotoxicity call: inactive
HepG2
  cytotoxicity call: inactive
S. aureus RN4220
  growth inhibition call: inactive

## C[C@H](CO)N1C[C@H](C)[C@H](CN(C)C(=O)Nc2ccccc2)OCc2ccccc2-c2c(n(C)c3ccccc23)C1=O
HSkMC
  cytotoxicity call: inactive
HepG2
  cytotoxicity call: inactive
S. aureus RN4220
  growth inhibition call: inactive

## Cc1ccc(S(=O)(=O)Nc2ccc3c(c2)C(=O)N([C@@H](C)CO)C[C@H](C)[C@@H](CN(C)S(=O)(=O)c2ccc(F)cc2)OCCCC[C@@H](C)O3)cc1
HSkMC
  cytotoxicity call: inactive
HepG2
  cytotoxicity call: inactive
S. aureus RN4220
  growth inhibition call: inactive

## CO[C@H](CN(C)C(=O)c1ccc2c(c1)OCO2)[C@H](C)CN([C@@H](C)CO)S(=O)(=O)c1ccc(F)cc1
HSkMC
  cytotoxicity call: inactive
HepG2
  cytotoxicity call: inactive
S. aureus RN4220
  growth inhibition call: inactive

## C[C@H]1CN([C@@H](C)CO)S(=O)(=O)c2ccc(Br)cc2O[C@H]1CN(C)C(=O)C1CCCCC1
HSkMC
  cytotoxicity call: inactive
HepG2
  cytotoxicity call: inactive
S. aureus RN4220
  growth inhibition call: inactive

## C[C@@H]1CN([C@@H](C)CO)C(=O)c2cc(NS(=O)(=O)c3ccc(F)cc3)ccc2O[C@@H](C)CCCCO[C@@H]1CN(C)Cc1ccc(C(F)(F)F)cc1
HSkMC
  cytotoxicity call: inactive
HepG2
  cytotoxicity call: inactive
S. aureus RN4220
  growth inhibition call: inactive

## Cc1noc(C)c1S(=O)(=O)Nc1ccc2c(c1)C(=O)N([C@@H](C)CO)C[C@H](C)[C@@H](CN(C)C(=O)Nc1ccccc1)OCCCC[C@@H](C)O2
HSkMC
  cytotoxicity call: inactive
HepG2
  cytotoxicity call: inactive
S. aureus RN4220
  growth inhibition call: inactive

## COc1ccc(-c2cnc3c(c2)C(=O)N([C@@H](C)CO)C[C@H](C)[C@H](CN(C)C(=O)Cc2ccccn2)O3)cc1
HSkMC
  cytotoxicity call: inactive
HepG2
  cytotoxicity call: inactive
S. aureus RN4220
  growth inhibition call: inactive

## C[C@H](CO)N1C[C@H](C)[C@@H](CN(C)S(=O)(=O)c2cccs2)OCCCC[C@H](C)Oc2ccc(NC(=O)Nc3ccc(C(F)(F)F)cc3)cc2C1=O
HSkMC
  cytotoxicity call: inactive
HepG2
  cytotoxicity call: inactive
S. aureus RN4220
  growth inhibition call: inactive

## C[C@@H]1CN([C@H](C)CO)C(=O)c2cc(NC(=O)CCCCCC(=O)Nc3ccccc3N)ccc2O[C@@H]1CN(C)C(=O)Nc1ccc(F)cc1
HSkMC
  cytotoxicity call: inactive
HepG2
  cytotoxicity call: inactive
S. aureus RN4220
  growth inhibition call: inactive

## COc1ccc(CN(C)C[C@@H]2OCCCC[C@@H](C)Oc3ccc(NC(=O)Nc4ccc(OC)cc4)cc3C(=O)N([C@H](C)CO)C[C@@H]2C)cc1
HSkMC
  cytotoxicity call: inactive
HepG2
  cytotoxicity call: inactive
S. aureus RN4220
  growth inhibition call: inactive

## C[C@H]1CN([C@@H](C)CO)C(=O)c2cc(NC(=O)Cc3ccccc3)ccc2O[C@@H]1CN(C)Cc1ccc(-c2ccccc2)cc1
HSkMC
  cytotoxicity call: inactive
HepG2
  cytotoxicity call: active
S. aureus RN4220
  growth inhibition call: inactive

## Cc1cccc(N2C[C@@H](N)CC2=O)c1
HSkMC
  cytotoxicity call: inactive
HepG2
  cytotoxicity call: inactive
S. aureus RN4220
  growth inhibition call: inactive

## CC(C)NC(=O)N(C)C[C@H]1OCCCC[C@H](C)Oc2ccc(NC(=O)Nc3cccc4ccccc34)cc2C(=O)N([C@H](C)CO)C[C@H]1C
HSkMC
  cytotoxicity call: inactive
HepG2
  cytotoxicity call: inactive
S. aureus RN4220
  growth inhibition call: inactive

## C[C@@H]1CN([C@H](C)CO)S(=O)(=O)c2ccc(C#CC3(O)CCCC3)cc2O[C@@H]1CN(C)C(=O)Cc1cccnc1
HSkMC
  cytotoxicity call: inactive
HepG2
  cytotoxicity call: inactive
S. aureus RN4220
  growth inhibition call: inactive

## Cc1cn(Cc2ccccc2)c(=O)[nH]c1=O
HSkMC
  cytotoxicity call: inactive
HepG2
  cytotoxicity call: inactive
S. aureus RN4220
  growth inhibition call: inactive

## C[C@@H](NC(=O)C[C@@H]1CC[C@@H](NC(=O)CN2CCOCC2)[C@H](CO)O1)c1ccccc1
HSkMC
  cytotoxicity call: inactive
HepG2
  cytotoxicity call: inactive
S. aureus RN4220
  growth inhibition call: inactive

## C[C@@H]1CN([C@@H](C)CO)C(=O)CCCn2cc(nn2)CO[C@@H]1CN(C)S(C)(=O)=O
HSkMC
  cytotoxicity call: inactive
HepG2
  cytotoxicity call: inactive
S. aureus RN4220
  growth inhibition call: inactive

## C[C@@H]1CN([C@@H](C)CO)C(=O)c2cccc(NC(=O)c3nc4ccccc4s3)c2O[C@H]1CN(C)S(C)(=O)=O
HSkMC
  cytotoxicity call: inactive
HepG2
  cytotoxicity call: inactive
S. aureus RN4220
  growth inhibition call: inactive

## Cc1noc(C)c1NC(=O)Nc1ccc2c(c1)C(=O)N([C@H](C)CO)C[C@H](C)[C@@H](CN(C)S(=O)(=O)c1ccc(F)cc1)OCCCC[C@H](C)O2
HSkMC
  cytotoxicity call: inactive
HepG2
  cytotoxicity call: inactive
S. aureus RN4220
  growth inhibition call: inactive

## C[C@H]1CN([C@@H](C)CO)C(=O)c2cc(C#Cc3ccncc3)cnc2O[C@H]1CN(C)C(=O)c1ccccc1F
HSkMC
  cytotoxicity call: inactive
HepG2
  cytotoxicity call: inactive
S. aureus RN4220
  growth inhibition call: inactive

## CC(C)(C)OC(=O)N1CC2(CNC(=O)O2)C1
HSkMC
  cytotoxicity call: inactive
HepG2
  cytotoxicity call: inactive
S. aureus RN4220
  growth inhibition call: inactive

## C[C@H]1CN([C@@H](C)CO)C(=O)c2cccc(NS(=O)(=O)c3ccc(Cl)cc3)c2O[C@H]1CN(C)C(=O)Nc1ccc(C(F)(F)F)cc1
HSkMC
  cytotoxicity call: active
HepG2
  cytotoxicity call: inactive
S. aureus RN4220
  growth inhibition call: inactive
